# According to article PMC4336329 (PLoS ONE, 2015):
# The whole screen tested about 310,000 compounds, of which about 14,000 (4.5%) showed an effect of 50% or more. Effects have a minus sign here. The list shows a part of the results.
# Target: human ether-à-go-go-related gene (hERG) potassium channel (human, UniProt Q12809)
# Experiment: primary screen, population patch clamp on CHO cells stably expressing hERG
# 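Further: peak tail current of the secondary pulse compared with the same well before compound.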
# Sequence of human ether-à-go-go-related gene (hERG) potassium channel (Q12809 whole entry, looked up): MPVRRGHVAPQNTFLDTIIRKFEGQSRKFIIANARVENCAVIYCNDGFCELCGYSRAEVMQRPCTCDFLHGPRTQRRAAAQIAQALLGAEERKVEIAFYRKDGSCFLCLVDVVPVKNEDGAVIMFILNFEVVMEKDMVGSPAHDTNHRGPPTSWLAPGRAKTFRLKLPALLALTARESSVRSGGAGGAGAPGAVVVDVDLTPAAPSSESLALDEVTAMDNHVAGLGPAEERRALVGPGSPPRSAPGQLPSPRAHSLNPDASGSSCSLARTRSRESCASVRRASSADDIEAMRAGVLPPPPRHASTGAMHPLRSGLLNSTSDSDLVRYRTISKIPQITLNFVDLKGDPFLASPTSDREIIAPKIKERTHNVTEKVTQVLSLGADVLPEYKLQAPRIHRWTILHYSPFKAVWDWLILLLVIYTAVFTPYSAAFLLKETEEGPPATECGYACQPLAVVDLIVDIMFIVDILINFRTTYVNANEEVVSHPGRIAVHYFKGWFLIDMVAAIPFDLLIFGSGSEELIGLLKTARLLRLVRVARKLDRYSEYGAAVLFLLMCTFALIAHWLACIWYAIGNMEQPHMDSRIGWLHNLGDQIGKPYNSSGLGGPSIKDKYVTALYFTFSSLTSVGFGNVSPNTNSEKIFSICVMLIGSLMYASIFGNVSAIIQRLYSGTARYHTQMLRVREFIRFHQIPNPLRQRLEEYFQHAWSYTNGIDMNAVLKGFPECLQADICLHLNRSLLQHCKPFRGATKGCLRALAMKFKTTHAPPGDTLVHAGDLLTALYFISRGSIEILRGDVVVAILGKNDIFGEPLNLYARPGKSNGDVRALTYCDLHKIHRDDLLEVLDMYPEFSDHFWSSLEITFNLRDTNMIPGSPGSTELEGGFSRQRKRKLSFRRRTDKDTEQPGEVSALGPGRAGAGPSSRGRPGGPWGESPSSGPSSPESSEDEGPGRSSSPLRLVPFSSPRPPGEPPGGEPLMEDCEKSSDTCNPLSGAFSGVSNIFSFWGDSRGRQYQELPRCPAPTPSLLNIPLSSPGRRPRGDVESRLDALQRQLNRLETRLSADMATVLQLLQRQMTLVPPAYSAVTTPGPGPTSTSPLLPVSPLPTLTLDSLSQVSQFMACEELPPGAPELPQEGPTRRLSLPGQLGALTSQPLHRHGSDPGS
row,SMILES,"hERG current change (%, negative = inhibition) at 10uM"
1,Cc1ccc(C)c(NC(=O)CN2C(=O)CC(C)S(=O)(=O)c3ccccc32)c1 (stereo not shown),8.3%
2,CC(C)NS(=O)(=O)c1ccc(NC(=O)CCc2ccccc2)cc1,-13.6%
3,CCN1CCN(CCCNC(=O)CNC(=O)c2nn(-c3ccc(OC)cc3)c(=O)c3ccccc23)CC1,21.1%
4,CCCCNC(=O)OCCSCCS(=O)(=O)c1ccc(Cl)cc1,-6.17%
5,COC(=O)C1=C(c2ccc(C(C)=O)cc2)C[C@@H]2CC[C@H]1N2C(=O)N1CCCC1,0.9%
6,Cc1nc(N[C@@H](Cc2ccccc2)C(=O)O)c2oc3ccccc3c2n1,11.6%
7,Cc1ccc2oc3nc(C)c(C(=O)Nc4cccc(C(F)(F)F)c4)cc3c(=O)c2c1,6.48%
8,Cc1cc(S(=O)(=O)Nc2c(NC3CCCCC3)c3ccccc3oc2=O)ccc1F,8.4%
9,Cc1c(C(=O)c2ccc(N(C)C)cc2)c2ccccn2c1CCC#N,-5.52%
10,CC(C)c1ccc(/C=C2\CC/C(=C\C=N\N(C)C)C2=O)cc1,7.74%
11,Cc1ccc(-c2nc(-c3ccc(Cl)cc3)sc2CC(=O)O)c(C)c1,26.5%
12,C=CCNC(=S)NNC(=O)c1ccc(OC(C)C)cc1,31.9%
13,CCc1ccc(NC(=O)C/C(C)=N/NC(=O)OCc2ccc(OC)cc2)cc1,-38.1%
14,CC1=CC(C)(C)N2C(=O)C3(C(C#N)=C(N)OC4=C3C(=O)CC(C)(C)C4)c3cc(C)cc1c32 (stereo not shown),3.59%
15,CCOC(=O)c1c(NCc2ccc3c(c2)OCO3)c2ccccc2[nH]c1=O,-10.8%
16,CC(=O)N(NC(N)=O)C(C)CC(=O)C1C(C)C=CCC1(C)C (stereo not shown),13.4%
17,CCOc1ccc(CC(=NCCc2ccccc2)C2=C(O)CC(C)(C)CC2=O)cc1OCC,-21.3%
18,C/C(=N/OC(=O)c1ccc(C)cc1)c1ccc(N2C(=O)C3CCCCC3C2=O)cc1 (stereo not shown),16%
19,Cc1ccc(C(=O)O)cc1N1C(=O)CCCC1=O,24%
20,CCOc1ccc(C(=O)NC2CCN(CC(=O)NCc3cccs3)CC2)cc1,-43.2%
21,CC1CC(C)CN(C(=O)COC(=O)Cc2ccc(Cl)cc2)C1 (stereo not shown),-1.77%
22,Cc1ccc(/C=C2\CCCC3=C2NC(=S)NC3c2ccc(C)cc2)cc1 (stereo not shown),-18.9%

row,SMILES,"hERG current change (%, negative = inhibition) at 10uM"
1,O=C(Nc1ccccc1C(=O)NCCN1CCOCC1)c1ccco1,-10.8%
2,COc1cc(NC(=O)CN2C(=O)c3ccccc3S2(=O)=O)cc(OC)c1,-7.97%
3,Nc1ccccc1SCC(=O)Nc1nccs1,23%
4,COCCOC(=O)C1=C(C)NC(=O)NC1c1ccco1 (stereo not shown),2.47%
5,O=C(CN1CCN(S(=O)(=O)c2ccccc2)CC1)Nc1ccnn1C1CCCC1,-27.3%
6,CC1CCCCC1NC(=O)c1cc(=O)[nH]c2ccccc12 (stereo not shown),20.2%
7,CCc1ccc2c(c1)C(c1cccs1)=NNC(c1cccnc1)=N2,-48.6%
8,O=C(Nc1nc(-c2ccc(S(=O)(=O)N3CCCCCC3)cc2)cs1)c1ccccc1,-1.54%
9,O=C(O)C1CCCCC1C(=O)Nc1cccc(Br)c1 (stereo not shown),2.78%
10,NNc1n[nH]c(=S)n1N,15.2%
11,O=C(CCn1c(=O)c2ccccc2n(CC(=O)N2CCN(c3ccccc3)CC2)c1=O)NCc1ccco1,-21.1%
12,COc1cccc(C(c2c(O)nc(SC)n(C)c2=O)c2c(O)nc(SC)n(C)c2=O)c1,0.717%
13,O=C1/C(=C\c2ccc3ccccc3c2)CCCc2ccccc21,-21.7%
14,CCn1cnc2cc(NCc3ccc(OC)cc3)ccc21,-39.4%
15,Cc1ccc(NC(=O)COc2cccc3ccccc23)c(O)c1,6.89%
16,CCOC(CNC(=O)CCc1c(C)nc2nc(C)nn2c1C)OCC,3.54%
17,Cc1ccc(C(=O)N2CCOCC2)cc1S(=O)(=O)Nc1cccc(C)c1C,2.37%
18,COc1ccc(/C=N/Nc2nc(-c3cccc(S(=O)(=O)N4CCCC4)c3)cs2)cc1OC,16.8%
19,O=C(O)c1ccccc1N1C(=O)C2C3c4ccccc4C(Br)(c4ccccc43)C2C1=O (stereo not shown),18.4%
20,COc1cc(N2CCCC2)ccc1[N+](=O)[O-],-6.45%
21,C/C(=N\NC(=O)c1cccnc1)c1nnn(-c2nonc2N)c1C,11.7%
22,CCCC(C(=O)NC(C)(C)C)N(CC1CCCO1)C(=O)c1snc(C(N)=O)c1N (stereo not shown),-39.2%

row,SMILES,"hERG current change (%, negative = inhibition) at 10uM"
1,O=c1[nH]c(/C(Cl)=C/c2c(F)cccc2Cl)nc2cc(Cl)ccc12,-8.5%
2,O=C(/C=C/c1cc2c(cc1Br)OCO2)NCc1ccc(Cl)cc1,-0.662%
3,COc1cc(NC(=O)c2ccc3c(c2)OCO3)ccc1NC(=O)c1ccco1,10.4%
4,CCC1Oc2ccccc2N(CC(=O)NCc2cccs2)C1=O (stereo not shown),-5.48%
5,COc1ccccc1Sc1nc(-c2ccccc2)ncc1OC,24.3%
6,Br.Cc1ccc(N2Cc3ccccc3C2=N)cc1[N+](=O)[O-],-4.21%
7,Clc1ccc(-n2nnc(-c3nccs3)n2)cc1Cl,25.7%
8,CC(=O)Nc1ccc(NC(=O)CCC(=O)Oc2ccc(C)cc2)cc1,19.3%
9,COc1cc(CCN2C(=O)N[C@@H](CCc3ccccc3)C(C(C)=O)=C2C)cc(OC)c1OC,-12.6%
10,Cc1sc2ncnc(N/N=C/c3ccc(O)cc3)c2c1C,2.28%
11,COc1ccc(-n2nc3c(c2NC(=O)c2ccc(S(=O)(=O)N4CCOCC4)cc2)CS(=O)(=O)C3)cc1,14.6%
12,COc1ccccc1C(CNC(=O)C(C)Oc1ccc(Br)cc1)N1CCCC1 (stereo not shown),-36.1%
13,Cc1ccc(S(=O)(=O)C(CCC(=O)N2CCOCC2)S(=O)(=O)c2ccc(C)cc2)cc1,-4.64%
14,O=C(/C=C/C=C/c1ccccc1)CC1(O)C(=O)Nc2ccccc21 (stereo not shown),-0.376%
15,N#Cc1ccc(OCC(=O)Nc2ccccc2NS(=O)(=O)c2cccs2)cc1,-22.1%
16,O=C(NNc1cc(Br)c(O)c(Br)c1)c1ccccc1,4.27%
17,CN(C(=O)COC(=O)c1ccc(C#N)cc1)c1ccccc1,-6.57%
18,Cc1cc(C)cc(-n2nc(C)cc2N)c1,0.795%
19,Cc1ccc(SC(C)C(=O)NC2CC2)cc1 (stereo not shown),-10.3%
20,Cc1ccc(NC(=O)COC(=O)Cn2cnc3ccccc32)cc1S(=O)(=O)N(C)C,6.28%
21,COc1cc(OC)cc(C(=O)OCC(=O)NC2CCCCCC2)c1,-3.73%
22,O=C(Nc1nc2ccccc2[nH]1)c1ccccc1O,13.5%

row,SMILES,"hERG current change (%, negative = inhibition) at 10uM"
1,O=C(Cc1cccs1)NCc1ccccc1Br,9.98%
2,CC(=O)c1c(C)[nH]c(C(=O)OCc2ccc([N+](=O)[O-])cc2)c1C,5.23%
3,CCC(CC)C(=O)Nc1nnc(-c2cccs2)s1,1.93%
4,CN(C(=O)Cn1c(=O)oc2ccccc21)C1CCCCC1,-1.73%
5,O=C(NCCCn1ccnc1)c1cc2ccccc2oc1=O,-10.6%
6,O=C(CCNS(=O)(=O)c1ccc(OC(F)(F)F)cc1)N1CCN(S(=O)(=O)c2cccc(F)c2)CC1,-31.9%
7,COc1cc(C(=O)NCc2ccncc2)cc(Br)c1OCc1ccccc1,-31.2%
8,CCc1ccc2c(c1)cc(CN(Cc1ccco1)C(C)=O)c1nnnn12,-25.5%
9,COC(=O)c1ccc(NC(=O)Cn2nc(SC)n(N)c2=S)cc1,7.17%
10,O=C(NCC1CCCO1)c1cc(-c2ccccc2F)no1 (stereo not shown),24.7%
11,COC(=O)c1ccc(CNC(=O)CSc2nc3ccccc3[nH]2)cc1,-15%
12,CC1(C)CC(NC(=O)COc2ccc3ccc(=O)oc3c2)CC(C)(C)N1,16.6%
13,Cc1nc2c3ccccc3n(Cc3ccccc3F)c2s1,18%
14,Cc1cc(/C=C(/C#N)C(=O)Nc2ccccc2)c(C)n1-c1cccnc1,-28.5%
15,COc1ccccc1NC(=O)Nc1cccc(C)n1,11.7%
16,NC(=O)c1ccccc1NS(=O)(=O)c1ccccc1,-0.997%
17,O=C(c1cnn(C(=O)c2ccc(O)cc2)c1)c1ccccc1O,16.5%
18,Cc1ccc(NC(=O)CCSc2nnc(Cc3ccccc3)o2)cc1,-4.94%
19,CC1(C)CC(CCNCc2ccc3c(c2)OCO3)(Cc2ccccc2)CCO1.Cl (stereo not shown),-30.9%
20,CCc1nnc(NS(=O)(=O)c2ccc(NC(=O)c3ccc(Br)cc3)cc2)s1,23.4%
21,COc1ccc(N2C(=O)CC(N(CCc3ccc(S(N)(=O)=O)cc3)C(=S)Nc3ccccc3)C2=O)cc1 (stereo not shown),12.5%
22,O=C(COC(=O)c1ccc(O)cc1O)c1ccc2c(c1)OCO2,7.78%
